Laboratory results reported in PubChem BioAssay AID1240 (Sanford-Burnham Center for Chemical Genomics, 2008).
About 800 (1.6%) of roughly 50,000 compounds showed an effect of 50% or more. This is one part of the list.

molecular target: Bcl-2-like protein 10 (Homo sapiens) (UniProt Q9HD36); assay: TR3 peptide-Bcl-B binding displacers, biochemical primary FP assay, phenotype converters (AID 1240); conditions: GST-Bcl-B / FITC-TR3 peptide fluorescence polarization; stronger effect = higher value; compound at 3.75 mg/L;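 further: 0% = Bcl-B with tracer peptide and DMSO and 100% = tracer peptide lacking Bcl-B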
UniProt Q9HD36, sequence (Q9HD36 whole entry, looked up): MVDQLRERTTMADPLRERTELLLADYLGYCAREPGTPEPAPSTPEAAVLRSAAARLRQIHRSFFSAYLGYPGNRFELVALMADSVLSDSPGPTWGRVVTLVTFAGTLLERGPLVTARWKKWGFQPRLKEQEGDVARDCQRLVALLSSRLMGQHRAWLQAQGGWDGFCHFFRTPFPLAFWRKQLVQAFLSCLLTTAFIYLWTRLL

Compound	displacement [%]
COc1ccc(N2C(=O)CC(Nc3ccc(N4CCCCC4)cc3)C2=O)cc1 (stereo not given)	0.4
COc1ccc(C(N)=O)cc1NC(=O)c1ccccc1C	-16.4
CCn1c2ccccc2c2cc(CNCc3ccc(OC)cc3)ccc21	0.8
Cc1ccc(OCC(=O)Nc2cccc(I)c2)c(Br)c1	-6.5
COc1ccc(S(=O)(=O)N2CCN(Cc3cccc(OC)c3OC)CC2)cc1	4.4
CCOc1ccc(/C=C2/C(=O)NC(=O)N(c3ccc(C)cc3)C2=O)cc1	-9.7
COc1ccc(OC)c(/C=C/C(=O)Nc2ccc(OC)cc2OC)c1	0.5
O=[N+]([O-])c1ccccc1OCCOCCN1CCOCC1	3.2
Cc1ccc(C(C)C)c(OCC(=O)Nc2cccc(-c3nc4ncccc4o3)c2C)c1	6.3
C=CCc1cccc2cc(C(=O)Nc3cccc(C(C)=O)c3)c(=O)oc12	4.6
CC(=O)N(C(C)=O)c1ccc(-c2ccco2)cc1	11
CCc1cccc(C)c1NC(=O)C(CC(C)C)N1C(=O)c2ccccc2C1=O (stereo not given)	-2.3
COC(=O)c1ccc(COc2cc(C)cc3oc(=O)cc(-c4ccccc4)c23)cc1	9.9
CCCCNC(=O)C(=O)NCCN1CCOCC1	-9.9
CCOC(=O)COc1c(Cl)cc(/C=C2\C(=O)NC(=O)N(c3ccc(Cl)cc3)C2=O)cc1Cl	-7.8
O=C(/C=C/c1cccc([N+](=O)[O-])c1)c1cccc(Br)c1	-2.7
CCc1ccc2oc(-c3ccc(NC(=O)c4ccccc4[N+](=O)[O-])cc3)nc2c1	11.1
Cc1occc1C(=O)Nc1ccc2c(c1)OCO2	1.9
CCOc1ccccc1NC(=O)c1c(NC(=O)c2ccccc2Br)sc2c1CCCC2	-3.8
CCOC(=O)C1=C(C)N=c2s/c(=C\c3ccc(OCC)cc3)c(=O)n2C1c1ccccc1 (stereo not given)	-1
CCc1ccc(-n2[nH]c(C)c(/C=C3/C=Nc4ccccc43)c2=O)cc1	15.8
CCOC(=O)N1N=C(c2cccc([N+](=O)[O-])c2)CC1(O)C(F)(F)F (stereo not given)	4.5

Compound	displacement [%]
CCN(CC)CCn1c2ccccc2n2cc(-c3ccc(OC)c(OC)c3)nc12	-7.4
O=C(c1cnn2c1NC(c1cccs1)CC2C(F)(F)F)N1CCN(C(c2ccccc2)c2ccccc2)CC1 (stereo not given)	12.9
O=C1N/C(=N\N=C\c2ccc(O)cc2)SC1Cc1ccccc1 (stereo not given)	-1.1
CCOc1ccc(NCC(O)CSCC(O)CNc2ccc(OCC)cc2)cc1 (stereo not given)	10.8
S=c1[nH]nc(-c2cc3ccccc3o2)n1-c1ccccc1	-7.8
O=C(Nc1nnc(COc2ccc(Br)cc2)s1)C1CCCCC1	-8.5
COc1cc(-c2ccc(NC(=O)c3cccnc3)c(OC)c2)ccc1NC(=O)c1cccnc1	1.9
O=C(Nc1ccc(N2CCOCC2)cc1)c1cccc(Cl)c1	-1.6
COc1cc(/C=C/C(=O)c2ccc(Cl)cc2)cc(OC)c1OC	-73.2
O=C1c2cccc3cccc(c23)C(=O)N1CCN1CCN(CC(O)c2ccc([N+](=O)[O-])cc2)CC1 (stereo not given)	-14.9
O=C(NC1CCCCC1)C1COc2ccccc2O1 (stereo not given)	-1.9
O=C(c1ccco1)N1CCN(C2CC3CCC2C3)CC1 (stereo not given)	-8.7
O=C(Nc1nc(-c2ccc(Cl)cc2)cs1)c1cccc(Cl)c1	-6.9
COc1ccccc1NCN1C(=O)S/C(=C/c2ccc(C)cc2)C1=O	6.6
O=C(O)CSCc1cccc([N+](=O)[O-])c1	15.9
COC(=O)CSc1nc(N)c(C#N)c(-c2ccc(OC)cc2)c1C#N	-6.6
O=C(NCCCO)C1CC(=O)N(c2ccc(Br)cc2)C1 (stereo not given)	-5.9
CCCCCCCNC1CC(=O)N(c2ccc(OCCC)cc2)C1=O (stereo not given)	4
COc1ccccc1NC(=O)c1ccccc1NC(=O)c1ccccc1Cl	8.2
CN(C)CCSc1nc(O)c(-c2ccccc2)c(=O)n1-c1ccccc1	-4.1
Cc1cccc(OCC(=O)Nc2cccc(Br)c2)c1C	-8.7
Cc1ccc(-c2nc(N)sc2-c2ccc([N+](=O)[O-])cc2)cc1	1

Compound	displacement [%]
Cc1ccc(/C=C2\SC(N3CCCC3)=NC2=O)cc1	-1.5
COc1ccc(CC(=O)Nc2sc3c(c2C(=O)Nc2ccccc2OC)CCCCC3)cc1	1.4
CC(C)=CC(=O)CC(C)(O)c1ccccc1 (stereo not given)	7.1
CCc1ccc(C(=O)O/N=C(\N)c2ccccn2)cc1	12.2
CCCCOC(C)n1cc(C)c(=O)[nH]c1=O (stereo not given)	9.5
NS(=O)(=O)c1ccc(CCNC(=S)Nc2ccccc2)cc1	-3.3
OC(COCCC12CC3CC(CC(C3)C1)C2)CN1CCSCC1 (stereo not given)	-8.1
O=C(CCc1ccccc1)Nc1ccc(Oc2ccccc2)cc1	-3.4
C=CCn1c(-c2ccccc2)c(NC(=O)c2ccco2)sc1=Nc1ccc(Br)cc1	9.2
O=C1N/C(=N/S(=O)(=O)c2ccccc2)S/C1=C/c1ccc(O)cc1	-17.8
Cc1ccc(-c2nc3ccccc3o2)cc1NC(=O)c1cccc(Br)c1	30
CC(=O)Nc1ccc(S(=O)(=O)Nc2cccc3c(NS(=O)(=O)c4ccc(NC(C)=O)cc4)cccc23)cc1	1.8
CC1(C)Oc2ccc3ccc(=O)oc3c2/C(=C/N2CCCCC2)C1=O	-13.5
C=C(C)C1CC=C(C)/C(=N/NC(=O)c2cccc(C)c2)C1 (stereo not given)	14.9
Cc1ccccc1C(=O)Nc1ccc(N2CCOCC2)cc1	1.6
Cc1cc(C)nc(SCC(=O)Nc2cccc(C(F)(F)F)c2)n1	-2.1
O=C(Nc1cccnc1)c1ccccc1Oc1ccccc1	-6.7
COC(=O)c1c(NC(=O)c2ccco2)sc2c1CCC2	91.1
O=C(CCN1CCCCC1)Nc1c(-c2ccccc2)c2cc(Br)ccc2[nH]c1=O	2.3
Cc1ccc(C2=C/C(=C\c3ccc(-c4ccccc4C(=O)O)o3)C(=O)O2)cc1	13.6
COc1ccc(NC(=O)C2=C(C)NC(=O)NC2c2ccc(OC)cc2)cc1 (stereo not given)	1
O=C1C2C(c3ccccc3Cl)OC3(C(=O)c4ccccc4C3=O)C2C(=O)N1c1cccc(C(F)(F)F)c1 (stereo not given)	7.7

Compound	displacement [%]
Cc1cccc(N2CCN(C(=O)c3cccs3)CC2)c1C	0.3
O=C1S/C(=C/c2ccccc2F)C(=O)N1CNc1ccccc1Br	11.8
CN(c1ccccc1)c1ccc(C=C2C(=O)NC(=O)NC2=O)cc1	19.6
C=CCN1C(=O)/C(=C\c2ccc(N(C)C)cc2)SC1=Nc1ccccc1	7.3
COc1cc(/C=C2\SC(=S)N(CC(=O)O)C2=O)cc(OC)c1OC	-4
O=C(Nc1ccc2c(c1)oc1ccccc12)c1cccc(C(F)(F)F)c1	-6.8
COc1ccc(Br)cc1CN1CCN(Cc2ccc(OC)c(OC)c2OC)CC1	-17.1
O=C(NC(=S)Nc1ccc2oc(-c3ccc(Cl)cc3)nc2c1)c1ccco1	13
CN1C(=O)/C(=C2\SC(=O)NC2=O)c2cc(Br)ccc21	-3.8
O=C(/C=C/c1ccc(-c2ccc(Cl)cc2Cl)o1)Nc1cccnc1	0
O=C(NN=C1CCN(Cc2ccccc2)CC1)c1sc2ccccc2c1Cl	-3.4
Cc1ccc(/C=C/C(=O)N2CCN(C/C=C/c3ccccc3)CC2)o1	-3.7
O=C(CSc1nc2ccccc2[nH]1)Nc1nc2ccccc2s1	6.1
CCn1cc(/C=C2/C(=O)NN(c3ccccc3)C2=O)c2ccccc21	13.1
CCOc1ccccc1N(CC(=O)N1CCOCC1)S(=O)(=O)c1ccccc1	-10.5
COc1ccc(-c2cc(-c3ccccc3O)[nH]n2)cc1OC	11
COc1ccc(C2CC(=O)C3=C(C2)Nc2ccccc2NC3c2cc(OC)c(OC)cc2OC)cc1 (stereo not given)	15.9
CC(=O)Nc1ccc(OCC=C(Cl)Cl)cc1	5.9
COc1ccc(NC(=O)c2ccc3ccccc3n2)cc1	-14.2
O=C(/C=C/c1ccc2c(c1)OCO2)NCc1ccc2c(c1)OCO2	0.1
CCOc1ccc(N=Cc2cccc(C)c2O)cc1	9.6
O=C(Nc1sc2c(c1C(=O)NCCc1ccccc1)CCCCC2)c1ccccc1F	12.4

Compound	displacement [%]
NC(=O)c1cc(NC(=O)c2cccc(F)c2)c(Cl)cc1Cl	9.6
Cc1cccc(Cc2cnc(NC(=O)CCN3C(=O)/C(=C/c4ccccc4Cl)SC3=S)s2)c1	-7
Cc1nc2nc[nH]n2c(=O)c1Cc1ccccc1	5.2
N#Cc1cccc2c1-c1ccccc1/C2=N\NC(N)=O	1.4
CC(=O)O/N=C1\Sc2ccccc2C1=O	8.5
Cc1c(NC(=S)NC(=O)c2ccco2)cccc1-c1nc2ncccc2o1	9.2
CC1=C(C(=O)OCCOc2ccccc2)C(c2cccc([N+](=O)[O-])c2)C2=C(CCCC2=O)N1 (stereo not given)	-3.9
CCC(C)(C)C1CCc2c(sc(N)c2C#N)C1 (stereo not given)	-18.4
COc1cc(/C=C2\SC(c3ccc(C)cc3)=NC2=O)cc(OC)c1O	-38.9
C/C(CCc1ccccc1)=N\NC(=O)CN(Cc1ccco1)S(=O)(=O)c1ccccc1	-1.3
CS(=O)(=O)N(CC(=O)NCCSc1ccccn1)c1cccc(Cl)c1	-5
CCc1c(C)sc(NC(=O)c2ccccc2F)c1C#N	-0.2
CCOc1cc(OCC)cc(C(=O)Nc2ccc(C(C)=O)cc2)c1	7.6
Cn1c(=O)cc(-c2ccccc2)c2cc(Cl)ccc21	14.7
CCOC(=O)c1csc(NC(=O)c2ccc(C(=O)c3ccccc3)cc2)n1	-24.4
Cc1ccc(NC(=S)Nc2ccc(F)cc2)c(C)c1	8.5
CCOC(=O)C1=CN(c2ccc(OCC)cc2)C=C(C(=O)OCC)C1c1ccccc1OC	6.5
COC(=O)c1ccc(NC(=O)Cn2nc(C)c3ccccc3c2=O)cc1	-8.7
O=S(N1CCOCC1)C12CC3CC(CC(C3)C1)C2 (stereo not given)	-0.8
COCCNC(=O)C(=O)Nc1ccccc1OC	13.7
O=C1/C(=C\c2ccc(-c3cccc([N+](=O)[O-])c3)o2)SC(=S)N1CCc1ccccc1	114
Cc1cc(OCC(=O)Nc2ccc(-c3nc4ccccc4o3)c(O)c2)ccc1Cl	14.8
